# Out of some 310,000 compounds screened, about 2,200 (0.71%) showed an effect of 50% or more. The effect is printed as a negative number. The list shows a part of the results.
# Target: human ether-à-go-go-related gene (hERG) potassium channel (human, UniProt Q12809)
# Assay: primary screen, population patch clamp on CHO cells stably expressing hERG
# human ether-à-go-go-related gene (hERG) potassium channel, sequence (Q12809 whole entry, looked up): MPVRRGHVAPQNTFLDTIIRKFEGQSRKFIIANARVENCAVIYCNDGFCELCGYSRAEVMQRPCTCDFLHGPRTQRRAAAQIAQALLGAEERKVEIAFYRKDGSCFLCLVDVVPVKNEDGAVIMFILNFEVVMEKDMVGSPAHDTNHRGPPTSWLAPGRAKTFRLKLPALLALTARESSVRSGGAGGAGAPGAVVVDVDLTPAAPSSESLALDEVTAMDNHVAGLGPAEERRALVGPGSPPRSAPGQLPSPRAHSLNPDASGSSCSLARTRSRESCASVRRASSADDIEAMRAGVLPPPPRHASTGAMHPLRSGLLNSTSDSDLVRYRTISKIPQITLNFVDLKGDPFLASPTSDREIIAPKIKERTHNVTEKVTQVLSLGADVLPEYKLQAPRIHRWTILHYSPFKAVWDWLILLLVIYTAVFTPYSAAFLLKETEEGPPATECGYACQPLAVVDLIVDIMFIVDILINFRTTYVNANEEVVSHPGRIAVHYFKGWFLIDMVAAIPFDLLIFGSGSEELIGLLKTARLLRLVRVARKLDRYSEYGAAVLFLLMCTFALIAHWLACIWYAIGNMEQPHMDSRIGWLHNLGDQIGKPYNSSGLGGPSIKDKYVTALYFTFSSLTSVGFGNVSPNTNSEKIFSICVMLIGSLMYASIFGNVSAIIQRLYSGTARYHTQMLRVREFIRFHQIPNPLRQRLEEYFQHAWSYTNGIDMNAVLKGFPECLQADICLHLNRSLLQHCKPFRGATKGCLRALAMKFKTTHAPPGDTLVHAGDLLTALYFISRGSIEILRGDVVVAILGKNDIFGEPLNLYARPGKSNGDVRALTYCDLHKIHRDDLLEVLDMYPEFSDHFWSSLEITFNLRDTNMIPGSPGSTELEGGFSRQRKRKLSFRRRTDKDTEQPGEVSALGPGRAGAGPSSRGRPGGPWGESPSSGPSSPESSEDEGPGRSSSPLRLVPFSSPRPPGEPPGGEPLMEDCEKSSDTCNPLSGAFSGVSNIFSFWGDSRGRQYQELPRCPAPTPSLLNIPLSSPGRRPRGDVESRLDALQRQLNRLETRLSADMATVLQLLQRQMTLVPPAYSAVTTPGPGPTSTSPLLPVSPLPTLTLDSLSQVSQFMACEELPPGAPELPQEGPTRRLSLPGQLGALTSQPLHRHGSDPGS
row,Compound,"hERG current change (%, negative = inhibition) at 1uM [%]"
1,Nc1nonc1C(=O)OCC(=O)N1CCCCC1,15.7
2,COc1ccccc1N=Cc1c(O)n(C)c(=O)n(C)c1=O,6.27
3,Cc1cccc(N(C(=O)c2csnn2)C(C(=O)NC(C)(C)C)c2cccnc2)c1 (stereo not drawn),13.6
4,O=c1c2cc(Cl)cc(Cl)c2nc2n1CCC2,15.2
5,CCn1c(SCC(=O)Nc2sc3c(c2C#N)CCCC3)nnc1-c1ccco1,-8.69
6,O=C1C(=O)N(O)C2CCCCC2N1O (stereo not drawn),10.6
7,Cc1ccc(NC2CCCN(C(=O)CCC3(C)CC3)C2)cc1C (stereo not drawn),2.52
8,O=C(CSc1ccc2nnc(CCNC(=O)c3ccccc3)n2n1)NC1CCCC1,11.6
9,Cc1ccc(C(=O)Nc2ccc(S(=O)(=O)Nc3ncccn3)cc2)cc1[N+](=O)[O-],12.6
10,COc1ccc(NC(=S)NCC(c2ccco2)N2CCCC2)cc1 (stereo not drawn),2.66
11,O=C(O)C1C2C=CC(C2)C1C(=O)Nc1cccc(C(=O)N2CCCCC2)c1 (stereo not drawn),1.41
12,CC(C)CC(C(=O)Nc1ccccc1)N1C(=O)C2C3C=CC(C3)C2C1=O (stereo not drawn),8.47
13,COC(=O)C1=C(c2ccc3ccccc3c2)C[C@@H]2CC[C@H]1N2C(=O)NC1Cc2ccccc2C1,10.6
14,Cc1cccc(N2CC(C)Cn3c2nc2c3c(=O)n(CC(=O)OCc3ccccc3)c(=O)n2C)c1 (stereo not drawn),11.3
15,O=C(NCc1ccc2c(c1)OCO2)C1CCN(Cc2cnn(-c3ccccc3)c2-n2cccc2)CC1,-18.8
16,CCCCCCCSc1cc(OC)c(CCNC)cc1OC.O=C(O)/C=C\C(=O)O,0.868
17,O=c1[nH]c(SCc2ccc(Cl)cc2)nc2c1CCC2,8.02
18,C=CCn1c(SC2CCOC2=O)nc2scc(C3CC3)c2c1=O (stereo not drawn),-11.6
19,CCOCCCNC(=S)N(CCO)Cc1cc2cc3c(cc2[nH]c1=O)OCCO3,16.6
20,CN1CCN(S(=O)(=O)c2ccc3[nH]c(=O)oc3c2)CC1,-1.23
21,O=C(NCC(=O)N1CCN(c2ccccc2F)CC1)c1ccc(Br)o1,-6.22
22,Cc1sc(NC(=O)c2ccc(Br)s2)c(C(N)=O)c1C,18.8

row,Compound,"hERG current change (%, negative = inhibition) at 1uM [%]"
1,C=CCN(Cc1nc(-c2cc(OC)c3c(c2)OCO3)oc1C)C1CCS(=O)(=O)C1 (stereo not drawn),10
2,CC(OC(=O)C1=NNC(=O)CC1)C(=O)Nc1ncc(Cl)cc1Cl (stereo not drawn),8.74
3,CCCN1C=CC(=CC=C(C#N)C#N)C=C1,8.7
4,Cc1ccccc1N(CC(=O)N/N=C/c1ccc(Cl)cc1)C(=O)c1ccccc1,10.6
5,O=C(NCCCN1CCOCC1)C(=O)NCCc1ccccc1,11.6
6,CCN(CC(=O)Nc1c(F)cccc1F)C(=O)CCc1nc2cc(S(=O)(=O)N(C)C)ccc2n1CC,4.54
7,Cn1c(-c2ccccc2)n[nH]c1=S,0.362
8,C=CCn1c(N)c(C(=O)Nc2ccc(C)c(C)c2)c2nc3ccccc3nc21,16.9
9,CC(C)(C)c1ccc(/C=C2\Oc3cc(OC(=O)N4CCOCC4)ccc3C2=O)cc1,1.94
10,CCOc1ncccc1C(=O)NCCCSc1ccccc1,-15.8
11,COc1cccc(-c2cc(C(F)(F)F)nc(-n3ccc([N+](=O)[O-])n3)n2)c1,6.28
12,CCc1ccc2c(CSc3nnnn3C)cc(=O)oc2c1,-14.4
13,CCC(=O)Nc1c(S(=O)(=O)c2ccc(C)cc2)c2nc3ccccc3nc2n1C(C)c1ccccc1 (stereo not drawn),2.06
14,COc1ccc(CNC(=O)C[C@H]2C(=O)N(Cc3ccccc3)C[C@@H]2Cc2ccccc2)cc1,10.1
15,O=C(CNC(=O)c1ccc2c(c1)OCO2)N/N=C/c1cccc([N+](=O)[O-])c1,7.12
16,COC(=O)c1c(NC(=O)CCC(=O)O)sc2c1CCCCC2,7.59
17,CCCOc1ccc(N2C(=O)CC(N3CCN(C(=O)c4ccco4)CC3)C2=O)cc1 (stereo not drawn),-2.69
18,CCOc1ccc2nc(NC(=O)Cn3cnc4c3c(=O)n(C)c(=O)n4C)sc2c1,-34.2
19,O=C(CNC(=O)c1ccc(Cl)cc1)Nc1ccc(Br)cc1C(=O)c1ccccc1,3.47
20,COc1ccc(N2CCN(C(=O)CSc3nnc(C)c(=O)[nH]3)CC2)cc1,3.37
21,CCCCN(Cc1cc2cc(OC)ccc2[nH]c1=O)S(=O)(=O)c1ccc(C)cc1,7.56
22,Cc1ccc2c(c1)sc1nc(=O)ccn12,2.41

row,Compound,"hERG current change (%, negative = inhibition) at 1uM [%]"
1,CC(C)NS(=O)(=O)c1ccc(NC(=O)Cc2ccsc2)cc1,14.5
2,O=C(CCc1ccc(Oc2cc([N+](=O)[O-])cc([N+](=O)[O-])c2)cc1)N1CCCCCC1,5.42
3,CC(NC(=O)CSc1nc(=O)cc(N)n1CCc1ccccc1)c1ccccc1 (stereo not drawn),-2.29
4,Cc1nc(Nc2ccc(Cl)cc2)c2nnn(Cc3ccccc3)c2n1,14.1
5,O=C(CNS(=O)(=O)c1ccc(F)cc1)Nc1ccc(C(F)(F)F)cc1,9.35
6,O=C(COc1cccc(C(F)(F)F)c1)Nc1ccccc1N1CCCCC1,7.09
7,COc1cccc(CN2CC(C(=O)NCCOc3cccnc3)CCC2=O)c1 (stereo not drawn),18.2
8,COc1ccc(S(=O)(=O)N2CCC(C(=O)NCc3cccc(OC)c3)CC2)cc1,6.95
9,CCOc1cc(NC(=S)NCCCN2CCOCC2)c(OCC)cc1NC(=O)c1ccc(OC)cc1,11.9
10,CCOc1ccc(N2C(=O)CN(O)C=C3N=c4ccccc4=C32)cc1,5.94
11,CC1CCCN(CCC(=O)c2ccc(Br)cc2)C1.Cl (stereo not drawn),-32.1
12,CCN(CC)CCNC(=O)C1CCCCN1S(=O)(=O)c1cccc([N+](=O)[O-])c1 (stereo not drawn),0.0258
13,Cc1nc2ccc(NC(=O)c3ccc([N+](=O)[O-])cc3)cc2[nH]1,12.5
14,O=c1nc(N2CCOCC2)nc(N/N=C/c2ccc3c(c2)OCO3)[nH]1,8.84
15,CCOC(=O)/C=C/C(=O)N1CCN(C(=O)/C=C/C(=O)OCC)CC1,6.99
16,CCOC(=O)CNC(=S)n1cnc(N)n1,12.2
17,N#Cc1cc([N+](=O)[O-])ccc1Oc1ccc(-c2nnco2)cc1,10.5
18,O=C(C/C=N/OCc1ccc(Cl)cc1)c1cnc(-c2ccccc2)s1,18
19,CN(C)CCCN(C(=O)c1ccc(S(=O)(=O)N2CCc3ccccc3C2)cc1)c1nc2c(F)cccc2s1.Cl,6.05
20,Cc1ccc2nc(Cc3ccc(N)cc3)oc2c1,8.08
21,Cc1ccc2cc(CN(Cc3ccco3)C(=O)NCc3ccccc3)c(=O)[nH]c2c1C,5.12
22,COc1ccc(-c2nnc(SCc3ccccc3F)o2)cc1,6.32

row,Compound,"hERG current change (%, negative = inhibition) at 1uM [%]"
1,C/C(N)=C(/C#N)C(=O)COC(=O)C1CCC(C(C)(C)C)CC1 (stereo not drawn),6.53
2,COc1ccc(NC(=O)c2ccccc2Sc2ccc(NC(C)=O)nc2)cc1,11.1
3,Cc1c(C(C)C)c(=O)n(-c2ccc(S(=O)(=O)NCc3ccccc3)cc2)n1C,3.67
4,CS(=O)(=O)Nc1ccc(Cc2noc(-c3ccc4[nH]cc(CCN)c4c3)n2)cc1.O,18.4
5,CCN(CC(=O)N1CCOCC1)S(=O)(=O)c1ccc(F)cc1,3.25
6,CSc1nc(-c2cccs2)c(C#N)c(=O)[nH]1,6.78
7,CCOc1cc(/C=C(\C#N)C(=O)Nc2ccc(S(N)(=O)=O)cc2)ccc1OCCN1CCOCC1,7.27
8,O=C(O)c1cc2c(=O)c3ccccc3oc2nc1C(F)(F)F,11.8
9,CS(=O)(=O)N(CCc1ccccc1)CC(=O)Nc1ccccc1,13.3
10,CCC1(CC)Nc2ccccc2C(=O)N1c1ccc(OC)cc1,14.4
11,O=C(CC1C(=O)NCCN1Cc1ccccc1)NC1CCCCCC1 (stereo not drawn),1.67
12,Cc1cccc(NC(=O)CSc2nnc(-c3ccco3)n2CC2CCCO2)n1 (stereo not drawn),-0.807
13,O=C(Nc1ccccc1)NC1CCN(Cc2c(F)cccc2Cl)CC1,22.3
14,COc1cc2c(cc1OC)C(c1cccc(C)c1)CC(=O)N2 (stereo not drawn),2.01
15,O=C(Cc1ccc(S(=O)(=O)N2CCCC2)s1)N1CCN(c2ccc(F)cc2)CC1,-6.63
16,CCC1Sc2ccccc2N(CC(=O)NCc2ccc3c(c2)OCO3)C1=O (stereo not drawn),2.97
17,COc1cccc(C(=O)Nc2ccc(S(=O)(=O)Nc3cc(C)nc(C)n3)cc2)c1,3.65
18,CC(C)CN1C=C2C(=O)C(C)(OC(=O)CCc3ccccc3)C(=O)C=C2C=C1c1ccc(C#N)cc1 (stereo not drawn),7.93
19,Cc1ccc(C)c(SCC(=O)NC(=O)NCc2ccccc2)c1,6.13
20,CCc1noc(C)c1C(=O)OCC(=O)N1CCc2ccccc21,0.156
21,COc1ccc(CCC(C)N2CCc3ccccc3C2)cc1 (stereo not drawn),-34.6
